Data taken from patent publication US20080167219A1 (published 2008).

T1: factor VIIIa (UniProt P00451 20-2351, limits assumed)
T1 construct: also called FVIIIa
T1 sequence (looked up): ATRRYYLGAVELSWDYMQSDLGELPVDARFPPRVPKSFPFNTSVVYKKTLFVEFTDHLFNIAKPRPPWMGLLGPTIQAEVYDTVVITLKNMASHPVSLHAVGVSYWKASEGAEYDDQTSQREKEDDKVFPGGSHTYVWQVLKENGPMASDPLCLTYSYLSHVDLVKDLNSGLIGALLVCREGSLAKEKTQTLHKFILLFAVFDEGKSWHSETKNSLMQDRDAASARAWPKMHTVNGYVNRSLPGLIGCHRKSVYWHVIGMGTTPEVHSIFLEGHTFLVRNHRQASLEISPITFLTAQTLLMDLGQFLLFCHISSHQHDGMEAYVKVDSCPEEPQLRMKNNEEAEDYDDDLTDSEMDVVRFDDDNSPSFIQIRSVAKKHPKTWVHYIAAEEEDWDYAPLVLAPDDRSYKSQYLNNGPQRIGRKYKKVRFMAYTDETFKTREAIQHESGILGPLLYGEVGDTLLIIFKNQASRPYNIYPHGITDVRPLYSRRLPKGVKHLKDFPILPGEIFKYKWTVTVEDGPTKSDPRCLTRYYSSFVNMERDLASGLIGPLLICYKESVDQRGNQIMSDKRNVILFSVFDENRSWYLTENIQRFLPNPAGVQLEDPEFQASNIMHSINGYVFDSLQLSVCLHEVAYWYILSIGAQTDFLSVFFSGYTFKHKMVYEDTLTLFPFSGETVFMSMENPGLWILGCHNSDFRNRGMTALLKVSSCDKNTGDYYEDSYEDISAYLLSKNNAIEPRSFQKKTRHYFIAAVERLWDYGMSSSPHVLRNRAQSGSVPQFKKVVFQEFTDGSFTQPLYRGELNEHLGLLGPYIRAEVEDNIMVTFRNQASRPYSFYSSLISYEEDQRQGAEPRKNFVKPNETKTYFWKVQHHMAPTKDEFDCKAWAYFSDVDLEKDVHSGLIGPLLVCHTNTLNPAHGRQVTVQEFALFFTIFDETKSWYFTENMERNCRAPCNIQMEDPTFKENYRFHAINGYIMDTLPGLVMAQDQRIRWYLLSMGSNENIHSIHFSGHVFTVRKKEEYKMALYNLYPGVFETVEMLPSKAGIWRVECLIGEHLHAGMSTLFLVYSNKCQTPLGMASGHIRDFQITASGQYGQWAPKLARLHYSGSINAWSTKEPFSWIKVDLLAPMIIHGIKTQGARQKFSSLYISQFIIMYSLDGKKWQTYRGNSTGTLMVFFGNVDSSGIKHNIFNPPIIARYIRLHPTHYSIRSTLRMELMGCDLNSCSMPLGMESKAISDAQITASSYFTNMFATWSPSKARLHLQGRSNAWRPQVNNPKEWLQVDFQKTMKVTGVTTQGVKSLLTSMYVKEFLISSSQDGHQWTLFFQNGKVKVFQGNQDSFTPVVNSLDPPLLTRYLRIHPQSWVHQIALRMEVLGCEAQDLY

B1: recombinant wild type human factor IX (IX-7) (enzyme)
chain: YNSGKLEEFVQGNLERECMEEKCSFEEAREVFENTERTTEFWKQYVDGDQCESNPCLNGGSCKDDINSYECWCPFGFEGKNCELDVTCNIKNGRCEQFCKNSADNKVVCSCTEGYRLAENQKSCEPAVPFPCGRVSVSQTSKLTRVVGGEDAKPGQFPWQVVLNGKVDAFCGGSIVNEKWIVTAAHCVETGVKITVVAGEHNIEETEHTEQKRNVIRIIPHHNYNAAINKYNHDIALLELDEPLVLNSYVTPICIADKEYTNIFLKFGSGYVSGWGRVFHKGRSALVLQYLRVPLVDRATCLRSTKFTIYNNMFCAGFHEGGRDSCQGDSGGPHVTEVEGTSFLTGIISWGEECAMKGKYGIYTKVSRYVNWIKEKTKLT
notes: Expressed in human 293 cells and purified; also called wild type factor IX
B2: recombinant human factor IX IX-1, single alanine replacement at residue 86 (enzyme)
chain: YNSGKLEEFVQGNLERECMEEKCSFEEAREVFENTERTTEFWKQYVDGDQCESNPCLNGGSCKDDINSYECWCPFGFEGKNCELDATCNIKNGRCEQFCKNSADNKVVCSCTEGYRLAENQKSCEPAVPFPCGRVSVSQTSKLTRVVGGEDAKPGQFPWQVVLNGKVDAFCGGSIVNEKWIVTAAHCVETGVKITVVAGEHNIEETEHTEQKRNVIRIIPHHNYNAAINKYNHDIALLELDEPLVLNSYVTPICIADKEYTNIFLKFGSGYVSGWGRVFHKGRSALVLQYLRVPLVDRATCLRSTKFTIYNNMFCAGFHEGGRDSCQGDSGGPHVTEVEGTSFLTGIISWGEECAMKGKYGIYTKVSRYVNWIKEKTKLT
B3: recombinant human factor IX IX-2, single alanine replacement at residue 277 (enzyme)
chain: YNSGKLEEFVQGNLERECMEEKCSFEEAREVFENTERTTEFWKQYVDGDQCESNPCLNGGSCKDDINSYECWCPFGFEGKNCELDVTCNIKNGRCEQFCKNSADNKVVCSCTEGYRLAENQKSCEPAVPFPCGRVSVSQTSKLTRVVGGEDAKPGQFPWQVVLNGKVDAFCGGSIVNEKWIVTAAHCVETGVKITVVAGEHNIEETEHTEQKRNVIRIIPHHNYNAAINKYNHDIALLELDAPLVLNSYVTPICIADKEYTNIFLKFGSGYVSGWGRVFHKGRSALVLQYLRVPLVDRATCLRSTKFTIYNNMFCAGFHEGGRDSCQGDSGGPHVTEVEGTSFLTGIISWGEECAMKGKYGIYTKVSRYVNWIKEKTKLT
B4: recombinant human factor IX IX-3, double alanine replacement at residues 86 plus 277 (enzyme)
chain: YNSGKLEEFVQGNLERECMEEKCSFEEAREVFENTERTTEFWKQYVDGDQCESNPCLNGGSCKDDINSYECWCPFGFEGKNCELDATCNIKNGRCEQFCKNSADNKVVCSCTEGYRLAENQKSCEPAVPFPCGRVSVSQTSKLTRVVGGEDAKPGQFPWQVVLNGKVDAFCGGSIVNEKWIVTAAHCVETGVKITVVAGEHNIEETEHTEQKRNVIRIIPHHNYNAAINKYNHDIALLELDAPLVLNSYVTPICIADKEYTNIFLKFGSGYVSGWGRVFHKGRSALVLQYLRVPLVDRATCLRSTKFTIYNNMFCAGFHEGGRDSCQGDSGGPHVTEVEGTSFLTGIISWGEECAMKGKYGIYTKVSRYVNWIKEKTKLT
B5: recombinant human factor IX IX-4, double alanine replacement at residues 86 plus 338 (enzyme)
chain: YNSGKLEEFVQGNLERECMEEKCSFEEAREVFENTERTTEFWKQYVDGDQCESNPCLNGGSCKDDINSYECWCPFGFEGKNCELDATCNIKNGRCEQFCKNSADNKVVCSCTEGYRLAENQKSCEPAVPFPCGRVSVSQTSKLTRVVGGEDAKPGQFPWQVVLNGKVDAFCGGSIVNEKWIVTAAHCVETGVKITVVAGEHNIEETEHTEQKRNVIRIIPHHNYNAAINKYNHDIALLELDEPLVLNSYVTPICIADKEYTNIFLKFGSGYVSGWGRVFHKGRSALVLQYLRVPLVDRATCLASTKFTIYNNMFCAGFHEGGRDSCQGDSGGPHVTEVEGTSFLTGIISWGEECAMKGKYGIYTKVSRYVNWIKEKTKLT
B6: recombinant human factor IX IX-5, double alanine replacement at residues 277 plus 338 (enzyme)
chain: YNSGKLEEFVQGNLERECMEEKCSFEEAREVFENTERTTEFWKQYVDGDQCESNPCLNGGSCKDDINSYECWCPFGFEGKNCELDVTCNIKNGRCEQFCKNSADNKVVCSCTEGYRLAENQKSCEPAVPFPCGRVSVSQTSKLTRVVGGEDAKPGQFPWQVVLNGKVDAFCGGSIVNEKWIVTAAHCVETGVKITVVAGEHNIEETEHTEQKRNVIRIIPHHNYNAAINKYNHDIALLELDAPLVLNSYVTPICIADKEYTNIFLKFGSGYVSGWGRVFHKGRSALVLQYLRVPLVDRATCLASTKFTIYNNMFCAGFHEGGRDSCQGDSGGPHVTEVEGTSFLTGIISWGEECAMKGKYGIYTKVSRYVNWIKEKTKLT
B7: recombinant human factor IX IX-6, triple alanine replacement at residues 86, 277 and 338 (enzyme)
chain: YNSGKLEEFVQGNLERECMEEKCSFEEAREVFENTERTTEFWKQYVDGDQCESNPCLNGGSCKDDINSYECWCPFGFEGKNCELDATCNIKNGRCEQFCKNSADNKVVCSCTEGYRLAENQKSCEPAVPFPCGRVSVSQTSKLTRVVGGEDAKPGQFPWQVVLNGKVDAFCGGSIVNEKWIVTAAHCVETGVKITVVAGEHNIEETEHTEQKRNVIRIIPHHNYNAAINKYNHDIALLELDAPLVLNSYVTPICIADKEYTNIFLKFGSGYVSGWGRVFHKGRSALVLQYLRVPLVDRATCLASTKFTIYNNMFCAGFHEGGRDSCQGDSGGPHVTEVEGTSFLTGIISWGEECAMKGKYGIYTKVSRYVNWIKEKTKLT
notes: also called factor IX-6
B8: recombinant human factor IX IX-8, single alanine replacement at residue 338 (enzyme)
chain: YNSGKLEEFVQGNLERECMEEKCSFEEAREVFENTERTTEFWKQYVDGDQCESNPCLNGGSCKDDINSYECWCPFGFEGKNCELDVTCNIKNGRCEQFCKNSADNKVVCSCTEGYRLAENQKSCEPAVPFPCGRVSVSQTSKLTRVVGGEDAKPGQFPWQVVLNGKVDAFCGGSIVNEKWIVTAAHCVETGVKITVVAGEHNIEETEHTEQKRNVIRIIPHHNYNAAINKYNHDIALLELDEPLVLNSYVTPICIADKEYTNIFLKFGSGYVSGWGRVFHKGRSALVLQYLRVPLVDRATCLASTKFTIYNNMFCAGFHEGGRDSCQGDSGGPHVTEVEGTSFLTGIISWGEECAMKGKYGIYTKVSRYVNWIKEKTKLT

Experiments:
[1] = molecular target: T1, factor VIIIa; experiment: apparent Kd from intrinsic tenase activity (factor Xa generation) at limiting factor VIIIa (0.1 nM), factor IXa 0-15 nM, PCPS, Ca2+
Description: (§1) Binding experiments were performed by monitoring the intrinsic tenase activity at limiting concentrations of factor VIIIa. Twenty-five microliters of freshly prepared factor VIIIa (0.4 nM) were incubated with 25 μl of different concentrations of wild type or mutant factor IXa (0-20 nM) to form the intrinsic tenase complex. Activity of the intrinsic tenase complex formed by binding of factor VIIIa to factor IXa was then measured by the addition of 50 μl of a mixture of factor X and Spectrozyme FXa in a reaction buffer containing TBS/Ca/PCPS/BSA. Final concentrations were factor VIIIa, 0.1 nM, PCPS, 40 μM, factor X, 100 nM, Spectrozyme FXa, 0.5 mM, and factor IXa, 0˜15 nM. Experiments were performed in duplicate for 3 independent reactions, and curves were fitted using all data points. The Kd values were derived by calculations according to the following equation as described previously (Chang Y J, et al., Journal of Biological Chemistry. 2002; 277:25393).

[2] = molecular target: T1, factor VIIIa; experiment: derived for 0.25 nM factor IXa and 0.4 nM factor VIIIa
[3] = molecular target: T1, factor VIIIa; experiment: apparent Kd from intrinsic tenase activity at limiting factor VIIIa; this end of the range is tied to IX-2 by the 2nd table, row 21, column 7 (1.2♯)
Description: as §1

[4] = molecular target: T1, factor VIIIa; experiment: apparent Kd from intrinsic tenase activity at limiting factor VIIIa; this end of the range is tied to IX-3 by the 2nd table, row 23, column 7 (1.9♯)
Description: as §1

[5] = molecular target: T1, factor VIIIa; experiment: apparent Kd from intrinsic tenase activity at limiting factor VIIIa
Description: as §1

Binder	Enzyme (concentration of factor IXa-VIIIa complex) [2]	Kd [5]	other results
B1	0.033 nM	–	Kd [1]: 2.44 nM
B2	0.049 nM	–	–
B3	0.056 nM	–	Kd [3]: 1.2 nM
B4	0.039 nM	–	Kd [4]: 1.95 nM
B5	0.106 nM	0.4 nM	–
B6	0.114 nM	0.34 nM	–
B7	0.144 nM	0.19 nM	fold difference in Kd against IX-7 [5]: 10 fold
B8	0.052 nM	–	–
